Test results: the supplement of paper PMC11417369
± gives the standard deviation of the averaged measurements. Some of the results follow.

system: PfAP2-EXP AP2 domain (GST-tagged); experiment: gcPBM binding intensity (ln(normalized median fluorescence intensity)); higher = stronger DNA binding
How it was run: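 Binding intensity is the highest Masliner-normalised natural-log median intensity over replicate spots in either probe orientation. To obtain it, GST-tagged P. falciparum DNA-binding domains made in E. coli were incubated for 1 h on an Agilent 4 × 180k array of primer-extended double-stranded 36-bp intergenic genomic probes plus negative controls. Detection used Alexa488 anti-GST antibody with scanning at 488 nm.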

Sequence	gcPBM binding intensity (ln)
TACTTCATATAATTAGCACACAATAATTTCTCATTT [CACACA_site2872]	8.54 ± 0.43
TATAAATTATTTATCACACATAAAACAAAAATAAGA [CACACA_site5493]	8.84 ± 0.28
ATATATATTAAAAATAGTACATATAATAAAAATCAT [XGTACX_site4265]	8.65 ± 0.38
ATATGAAATATATGTAGTACACATAATTAAAAGTAG [XGTACX_site6490]	8.88 ± 0.28
TGTATATGTTTAATTAGTACATATAAAGTAACAATA [XGTACX_site1207]	8.54 ± 0.33
TACATATTCCTACAAATGTATAAATTATAAATATTA [XGTACX_negctrl_site30]	8.02 ± 0.3
AACGATATAGGTACTACACACATTATGTCATCCTAT [CACACA_site7205]	8.73 ± 0.35
TTTGTGGTTACATGTGCACACACTTATTTCGTTCTT [CACACA_site1435]	9.03 ± 0.23
GATATGTTTTCCTAGGTTCATGATGATAGGTAGTTT [XGTACX_negctrl_site217]	8.85 ± 0.29
AATATATAAATTGACACACACATATATACATATATA [CACACA_site1213]	8.46 ± 0.39
TGTTAATATATCATTATGTTATAGGTTCAGCTGGGA [CACACA_negctrl_site401]	8.44 ± 0.46
ATATGCTACATTATATGTACACACATATACATATAT [XGTACX_site1656]	8.61 ± 0.38
TAATATAAAGAAATATCAATAATTTGGGCAAATGCC [GTGCAC_negctrl_site621]	8.22 ± 0.18
AGGTAGAAAAAAGACACACACATTATATATATATAT [CACACA_site4367]	9.98 ± 0.27
AAGGTGGTTATTAAATGTACACAGACATATACAAAA [XGTACX_site3007]	8.54 ± 0.36
TTTTATGCATGTGAAGTGCAAAATAAAAAATAAAAT [GTGCAC_site9612]	9.21 ± 0.028
TATATTTGTTAATTTTGTACGTATGGATATACATAA [XGTACX_site5100]	8.12 ± 0.35
TATAAATATAGAATTACACACAATGTTCTATAAATA [CACACA_site7508]	8.19 ± 0.35
AATAAATAAATAAATAAAACAAAGGGATTACATACA [TGCATGCA_negctrl_site513]	8.91 ± 0.26
CACAACATATATATATATATATATATATATATGTGT [CACACA_negctrl_site28]	9.235 ± 0.049
ATATTTTGTTATGTAGATGTTGGTAGGAATTTTGGT [CACACA_negctrl_site1104]	8.46 ± 0.47
TTAAAAAAATATTGAAGTACACACATTATAAACTTT [XGTACX_site3548]	8.49 ± 0.25

Sequence	gcPBM binding intensity (ln)
TACTTTTTAGGAAAGTGTACAAGCATATAAGGAATA [XGTACX_site2834]	8.93 ± 0.47
TTTCATATATATGAAACACACAAAGGAAAAAAAATT [CACACA_site4144]	8.87 ± 0.46
ATATAATAAAATTAATGTACATATATGTATTATATA [XGTACX_site3283]	8.4 ± 0.22
GCTCATATGACAACAACACACAAAAAAATAAAATGA [CACACA_site714]	8.62 ± 0.6
AAAAAAAAAAAACACACACACATAGACCTCCAATAG [CACACA_site3562]	8.68 ± 0.7
ACAAGTTTATTTGTTGCACACATATAAGTAGAGAAA [CACACA_site8994]	8.59 ± 0.22
AACATAATCTCATATACACACAAAAATATTGAAATA [CACACA_site7085]	8.61 ± 0.43
TACTTATATACACATGTATATTATATATATAATATA [XGTACX_negctrl_site335]	8.67 ± 0.4
CACACGCACGGACACACACACATATAAAATCTATAT [CACACA_site6428]	8.8 ± 0.26
TGTTATTAAAATATAGTGCATAATTAACCATTATAA [GTGCAC_site9594]	8.26 ± 0.22
TAATAATATATTTGTAGTACACAATTTTTTATAACT [XGTACX_site3951]	8.31 ± 0.3
TACTATAACAGACATACACACAAAAAAAAAAAAAAA [CACACA_site538]	8.18 ± 0.46
ATATTTAACAGGTTAAAAATATAAACAAATAAATAA [CACACA_negctrl_site907]	8.52 ± 0.43
ATTTTTTTTTTTTTTTTTTTTTTTTTTTAATCTGGA [CACACA_negctrl_site1347]	7.88 ± 0.46
GAGAGGATAGTTCACAGTACTCAGTAACTCTACGGA [XGTACX_site4875]	8.63 ± 0.61
AAAAAAAAATAATATACACACTCCAATATAAAAAAT [CACACA_site3958]	8.65 ± 0.43
CGCACTAAAAAACACACACACACACCCATATATATA [CACACA_site4152]	8.65 ± 0.3
TGTGTATTATAAACATGTACATAAAAATACGATATT [XGTACX_site3643]	8.89 ± 0.35
TTTTTCCCCCTTTTTTTGATTTTTATCTTAATTCTA [TGCATGCA_negctrl_site287]	8.34 ± 0.37
ATATAATAACAAAAGGTGCGCATTAAGACAAAAAAA	9.22 ± 0.2
TATTATATTGTTCATTTACACTTTCATTTTAAAAAA [CACACA_negctrl_site260]	8.69 ± 0.47
TTTTTTCATTTTTTATTTTTTTATTTTTTACATATT [GTGCAC_negctrl_site137]	8.53 ± 0.45

Sequence	gcPBM binding intensity (ln)
AAGGATTATTTTAATCGTACATGTGTAAATAATATA [XGTACX_site6177]	8.73 ± 0.35
AATGATGTTGTATTGTTTCGATATAACATCTAATTT [GTGCAC_negctrl_site309]	8.27 ± 0.4
TTTTTTAAAATAATAGGTACACATAAAAAAAAAAAA [XGTACX_site2517]	8.72 ± 0.67
CATACATACATACATACACACATATATATATATATG [CACACA_site1995]	9.23 ± 0.17
TTATTTATTTTCATATGTACTTATTTATAGAGGTTG [XGTACX_site5599]	8.8 ± 0.67
TATATATATAGACACACACACATATAAATAAATAAA [CACACA_site444]	9.03 ± 0.071
GTGCGTGCGTGTACTTAACACACATAATATGTATTT [CACACA_site8336]	8.58 ± 0.028
TAATTCCATAAGTAAACACACAAATGCCAAAATTTT [CACACA_site3205]	8.63 ± 0.37
TCCATATGCAAACTGGTGCACAAGTAGCTTTTATAT	8.99 ± 0.3
TTCTTTGCTTCTGTTTCACACATTTTTAAAATAAGC [CACACA_site4741]	9.12 ± 0.37
TTTCTTTTTCTAGTTATTTTTACTTATCCCTAATTT [TGCATGCA_negctrl_site460]	8.83 ± 0.48
TTATAATTAAGATATAATCAATAATAACAAATGAAC [CACACA_negctrl_site1690]	8.77 ± 0.42
ATATATAAAAATATTTGTACATATAGTTATATTTAT [XGTACX_site6114]	8.43 ± 0.67
TTAAGCCGCAATATGGGTACATAGGAAGAAGGGGAA [XGTACX_site8397]	8.87 ± 0.38
TTAAAGGGAATGTATACACACGTTTCTCTATGTTAT [CACACA_site4793]	8.59 ± 0.31
TATATATTGTTATATACACACATGTATATAAAAAAT [CACACA_site3221]	8.18 ± 0.33
GAGATGACATTACACAGTACCCAGGAAATCTACGGA [XGTACX_site4931]	8.64 ± 0.54
CAAAAAAGGTCCCGGAGTACATATATAATTTTTTTT [XGTACX_site458]	8.86 ± 0.33
ATTGTCCTAAATACTACAAAGTAGATCTTTAATATT [CACACA_negctrl_site1795]	8.29 ± 0.32
ATTTGAGAGTTAACAAAATATTTGGCCATCTTTTAT [XGTACX_negctrl_site447]	8.34 ± 0.41
TATAATAAATCATATGCATGTTGAAAAAAAAAAAAA [TGCATGCA_site923]	8.56 ± 0.45
AATGTCCTTATTTGCACACACACATATAAGAAATTT [CACACA_site3186]	8.8 ± 0.28

Sequence	gcPBM binding intensity (ln)
AACTCATAGCGGTGTGCACACAAAAAATTAAAAAAA [CACACA_site3033]	8.94 ± 0.33
TCATAAATGAAACACACACACACATCTGGATACCCC [CACACA_site3332]	9.18 ± 0.61
AATCAATATAAATAAAATTTTTAATTTTAACCCTAA [GTGCAC_negctrl_site266]	8.05 ± 0.38
ATTATATATATAAAGTGTACAAAAAAAAAAAAAAAA [XGTACX_site3134]	8.46 ± 0.33
ATATGTAGTTTTTACCTAATAAAAAAAAAAAAAAAA [CACACA_negctrl_site672]	8.19 ± 0.37
TTGTATTTACACGATCAACCAAATGGTATATAAATA [GTGCAC_negctrl_site167]	8.45 ± 0.45
AAATCATTCCTTTATTCACACAATATCTGTATTTAT [CACACA_site4407]	8.8 ± 0.42
TAAACATATAAAAAGGGTACACATTAAACATAGTAT [XGTACX_site7096]	8.72 ± 0.45
ATAGCTAAGATAGCTTGTACATATATTTACATATAT [XGTACX_site3694]	8.31 ± 0.29
AAAACAAATTAAAATCGTACAATTATAATGTTAATG [XGTACX_site180]	8.46 ± 0.42
TATAAAATAAAAATTATATATTTTAAATGGATACAA [TGCATGCA_negctrl_site284]	8.32 ± 0.45
ATGCACATTTATAAAAGTACATGTATGTAATATGTT [XGTACX_site830]	8.77 ± 0.33
ATTTAAATGAAAAAATGTACAAAAAGATTTAAACTC [XGTACX_site1489]	9.04 ± 0.4
ACATTTTGTGTTTTAGCACACAATTTTTCAGAATAT [CACACA_site2961]	8.27 ± 0.2
AATATATATTTATAAACACACACCAAAATTTGTGCT [CACACA_site3091]	8.64 ± 0.38
TATTAGCATGTTATTACACACAATATAAGATATATA [CACACA_site6775]	8.33 ± 0.42
ATATTATAATATTTATGTACATATATATAATATATA [XGTACX_site1633]	8.35 ± 0.24
TGTATAAATATATATACACACATATTTATATATATA [CACACA_site755]	8.575 ± 0.049
TATATATGTATCATTACACACATGTATACTTATTTG [CACACA_site4138]	8.68 ± 0.43
ATATATGTGCCCATATATATATATATAAATATATGT [GTGCAC_negctrl_site226]	8.51 ± 0.33
TACATTTGTATAAATAGTACGCGAAAACAAAAAAAA [XGTACX_site6246]	9.02 ± 0.43
